Measured values taken from PMC4336329 (PLoS ONE, 2015).
Hit rate of the full screen: of about 310,000 compounds, about 14,000 (4.5%) showed an effect of 50% or more. Effects have a minus sign here. This is one part of the list.

Target: human ether-à-go-go-related gene (hERG) potassium channel (human, UniProt Q12809)
Experiment: primary screen, population patch clamp on CHO cells stably expressing hERG
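Note: peak tail current of the secondary pulse compared with the same well before compound.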

human ether-à-go-go-related gene (hERG) potassium channel, sequence (Q12809 whole entry, looked up): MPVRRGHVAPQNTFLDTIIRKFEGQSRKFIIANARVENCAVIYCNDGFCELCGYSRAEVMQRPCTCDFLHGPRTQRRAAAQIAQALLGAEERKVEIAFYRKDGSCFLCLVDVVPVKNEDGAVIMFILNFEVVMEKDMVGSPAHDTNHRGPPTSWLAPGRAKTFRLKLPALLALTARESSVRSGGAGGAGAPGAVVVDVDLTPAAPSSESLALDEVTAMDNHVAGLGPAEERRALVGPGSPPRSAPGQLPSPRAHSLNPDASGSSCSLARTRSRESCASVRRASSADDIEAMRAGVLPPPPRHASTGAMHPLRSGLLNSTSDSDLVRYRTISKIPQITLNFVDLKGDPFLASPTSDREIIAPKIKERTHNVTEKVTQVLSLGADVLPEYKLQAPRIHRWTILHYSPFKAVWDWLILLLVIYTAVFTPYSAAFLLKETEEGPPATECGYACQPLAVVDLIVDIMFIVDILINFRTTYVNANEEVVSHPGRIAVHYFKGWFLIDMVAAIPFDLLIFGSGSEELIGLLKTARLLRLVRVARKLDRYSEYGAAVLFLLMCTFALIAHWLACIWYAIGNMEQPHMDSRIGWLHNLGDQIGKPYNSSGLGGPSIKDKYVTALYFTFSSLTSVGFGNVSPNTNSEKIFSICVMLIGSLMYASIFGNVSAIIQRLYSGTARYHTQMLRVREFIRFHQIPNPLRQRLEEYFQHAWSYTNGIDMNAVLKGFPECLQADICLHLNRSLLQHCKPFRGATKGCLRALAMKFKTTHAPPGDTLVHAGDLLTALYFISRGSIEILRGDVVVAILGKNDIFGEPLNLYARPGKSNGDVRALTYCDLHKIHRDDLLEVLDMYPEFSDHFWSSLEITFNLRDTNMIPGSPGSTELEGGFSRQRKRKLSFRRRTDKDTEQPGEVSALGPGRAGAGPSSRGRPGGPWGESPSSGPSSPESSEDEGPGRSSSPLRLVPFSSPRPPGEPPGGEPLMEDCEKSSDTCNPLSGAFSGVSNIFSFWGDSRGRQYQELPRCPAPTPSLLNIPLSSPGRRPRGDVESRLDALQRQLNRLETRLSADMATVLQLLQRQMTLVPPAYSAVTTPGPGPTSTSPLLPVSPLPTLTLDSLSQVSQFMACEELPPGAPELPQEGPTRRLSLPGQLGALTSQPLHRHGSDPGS

Structure (SMILES)	hERG current change (%, negative = inhibition) at 10uM [%]
O=C(O)CCC(=O)NCc1c(Cl)cccc1Sc1ccc(Cl)cc1	11
COc1ccc(S(=O)(=O)N2CCN(C(=O)c3ccco3)CC2)cc1OC	-3.33
COc1cccc(C2OC(=O)c3ccccc3N2C(C)=O)c1OC(C)=O (stereo not drawn)	10.2
CCC(OC(=O)c1nsc(Cl)c1Cl)C(=O)NCc1ccco1 (stereo not drawn)	10.4
O=C(Nc1cccc(S(=O)(=O)N2CCOCC2)c1)c1ccc2ccccc2n1	-1.59
N#Cc1c(N(CCO)CCO)nc(N)c2c(N)nc3c(c12)CC(=O)N3CC1CCCO1 (stereo not drawn)	10
CCOC(=O)c1sc2nc(N3CCOCC3)c3c(c2c1N)CC(C)(C)N(C)C3	2.29
CN(C)S(=O)(=O)c1ccc2c(c1)nc(CCC(=O)NCCc1ccc(Cl)cc1)n2C	-41
CCc1nnc(NC(=O)c2cc(S(=O)(=O)N3CCCCC3)ccc2C)s1	0.426
COc1cccc(/C=N/n2nnnc2N)c1O	5.64
CCCn1c(N)c(N(CCOC)C(=O)c2ccc(F)cc2)c(=O)[nH]c1=O	13.1
Cl.O=C(NCCCN1CCOCC1)c1cn(-c2ccccc2)nc1-c1cccs1	-39.9
Cc1ccc(NC(=O)COc2ccc3c(c2)CCC3)nc1	11.1
Cc1nn(CC(=O)Nc2cccc(S(N)(=O)=O)c2)c(C)c1[N+](=O)[O-]	23.8
Cc1ncc(CO)c(/C=N/NC(=O)c2cc(Br)ccc2O)c1O	3.52
CN(C)C(=O)C12CCC(C)(c3nc4ccccc4nc31)C2(C)C (stereo not drawn)	8.51
Cc1cc(C)c(C)c(S(=O)(=O)N2C(=S)NC(=O)C2CC(C)C)c1C (stereo not drawn)	12.9
CCCCNC(=O)c1cc2c(=O)n3cccc(C)c3nc2n(CCN2CCOCC2)c1=N	-86
O=C(O)CCC(=O)Nc1ccccc1C(=O)Nc1ccccc1	15.6
Cc1nn(C)c(C)c1P(=S)(c1c(C)nn(C)c1C)N(C)C	-6.71
CS(=O)(=O)c1ccc(C(=O)OCc2nnc(-c3ccc(Cl)cc3)o2)cc1[N+](=O)[O-]	11.7
COC(=O)CN(c1ccc(Cl)cc1C)S(C)(=O)=O	13.9

Structure (SMILES)	hERG current change (%, negative = inhibition) at 10uM [%]
CC(=O)c1cc(F)c(N2CCN(C(=O)C(C)(C)C)CC2)cc1C	-3.1
CC1CN(C(=S)SCCN2Cc3ccccc3C2=O)CC(C)O1 (stereo not drawn)	-6.85
O=C(N/N=C/c1cc(Br)c(Br)o1)c1cc2ccccc2o1	12.9
N#C/C=C1/NC(=O)c2ccccc2S1	3.78
COCCCNc1nc2ccccc2nc1NS(=O)(=O)c1cccc(C)c1	13.3
Cc1c(Cl)c([N+](=O)[O-])nn1CCCC(=O)Nc1cccnc1	-2.96
O=C1c2ccccc2S(=O)(=O)N1CC(O)Cn1ccc2ccccc21 (stereo not drawn)	-6.66
CC1CCC(C(=O)NC(C(=O)N2CCC3(CC2)OCCO3)C(C)C)CC1 (stereo not drawn)	-7.36
COc1cccc(N(CC(=O)N2CCOCC2)S(C)(=O)=O)c1	22.9
O=C(CCC1CCCC1)Nc1ccccc1-c1ccccc1	2.88
C[C@H](CCC(=O)NCC(=O)O)[C@H]1CC[C@H]2[C@@H]3[C@H](O)C[C@@H]4C[C@H](O)CC[C@]4(C)[C@H]3C[C@H](O)[C@]12C.O	11.3
O=C(Oc1coc(CSc2ncccn2)cc1=O)c1cccs1	-7.2
C/C(=N\NC(=O)C(O)c1ccccc1)c1ccc(Cl)cc1 (stereo not drawn)	22.4
Cc1nc2ccccc2c2c1CC(C)S2 (stereo not drawn)	-16.8
Cc1cc(/C=N/NC(=O)c2ccncc2)c(C)n1-c1ccccc1	19.8
Nc1c(C(=O)CSc2ccccn2)c(=O)[nH]c(=O)n1C1CC1	-0.178
Cc1ccc(C)c(N(CC(=O)NC2CCCC2)C(=O)c2cc3cc4cc(C)ccc4nc3s2)c1	1.54
COc1ccc(/C=C/C(=O)O)cc1S(=O)(=O)N1CCc2ccccc21	8.17
NC(=O)c1ccc(SCC(=O)OCC(=O)N2CCCCC2)c([N+](=O)[O-])c1	-1.55
O=C1CC(C(=O)N(CC2CCCO2)C(C(=O)NC2CCCCC2)c2ccncc2)CS1 (stereo not drawn)	-1.73
CCN1CCN(c2cc(-c3ccccc3)nc3cc(-c4cccc(F)c4)nn23)CC1	0.257
CCOC(=O)c1cnc2cc(C)nn2c1-c1ccccc1	3.92

Structure (SMILES)	hERG current change (%, negative = inhibition) at 10uM [%]
COc1ccc(N2CC(C(=O)N3CCC(c4nc5ccccc5[nH]4)CC3)CC2=O)cc1 (stereo not drawn)	-19.3
Cc1ncsc1C(=O)N1N=C2/C(=C/c3ccc(N4CCOCC4)cc3)CCCC2C1c1ccc(N2CCOCC2)cc1 (stereo not drawn)	-5.31
O=C(NC1CCCC1)c1ccc(CS(=O)(=O)c2ccc(Br)cc2)o1	-26.8
CCOCCOC(=O)C(C)Oc1ccc(Oc2nc(Cl)ccc2Cl)cc1 (stereo not drawn)	16.8
COC(=O)c1c(C)oc2ccc(N(C(=O)Oc3ccccc3)S(=O)(=O)c3ccc(Cl)c([N+](=O)[O-])c3)cc12	14.6
CCOCCCn1c(C)nc2c(c1=O)c1nc3ccccc3nc1n2-c1ccc2c(c1)OCCO2	9.85
COCCn1c(SCC(=O)Nc2ccc(F)cc2)nc2ccccc2c1=O	-48.6
CCCC(=O)Nc1nnc(C2CCCO2)s1 (stereo not drawn)	8.76
COC(=O)CCC(=O)Nc1ccc(S(=O)(=O)N2CCc3ccccc32)cc1	12.9
Cc1c(Cl)cccc1NC(=S)NCc1cccn1C	7.23
Cc1cc(C)nc(/N=C(\NC(=O)C(C)(C)C)Nc2ccc(F)cc2)n1	23.5
COc1cc(NC(=O)CSc2nnc(C)s2)cc(OC)c1	11.9
O=C(Nc1ccc(Cl)cc1C(=O)c1ccccc1)c1ccc(Br)o1	24.5
Cn1nc(-c2ccc(C(=O)N3CCN(CCO)CC3)cc2)c2ccccc2c1=O	-6.52
CC(Oc1ccc(Cl)cc1Cl)c1nc(-c2ccc(NC(=O)c3ccccn3)cc2)no1 (stereo not drawn)	10.4
COc1ccc(OCC(=O)N(C)Cc2ccccc2)cc1	0.218
O=C(Nc1ccnn1C1CCN(C(=O)c2cnsn2)CC1)c1cccc(F)c1	-8.92
COc1ccc(C2CC(=O)c3cnc(NC(=O)c4cc(OC)cc(OC)c4)nc3C2)cc1 (stereo not drawn)	-23.1
CC(=O)c1ccccc1OCC(O)CN1CCN(C(c2ccccc2)c2ccccc2)CC1 (stereo not drawn)	-66.7
O=C(COC(=O)c1ccco1)c1ccc2ccccc2c1	9.8
CCn1c(=O)c2sccc2n(CC(=O)NC2CCCC2)c1=O	15
O=C(COc1ccccc1Cl)NCC(c1cccs1)N1CCOCC1 (stereo not drawn)	-27

Structure (SMILES)	hERG current change (%, negative = inhibition) at 10uM [%]
COC(=O)c1ccc2c(=O)[nH]c(CN3c4ccccc4CC3C)nc2c1 (stereo not drawn)	-10.2
Cc1cc(C)nc(SCC(=O)c2ccc(Cl)cc2)n1	2.14
NS(=O)(=O)c1ccc(CCNC(=O)COC(=O)/C=C/c2ccc(Cl)cc2)cc1	-9
COC(=O)c1ccc(C)c(NC(=O)CN(c2ccccc2)S(=O)(=O)N(C)C)c1	16.3
CCCN(CCC)C(=O)CC(c1ccccc1)c1cc(Br)ccc1O (stereo not drawn)	8.47
CCN(CC)S(=O)(=O)c1ccc(C)c(NC(=O)CN2C(=O)NC3(CCCC3)C2=O)c1	10.9
COc1ccc(CNS(=O)(=O)c2cc3c4c(c2)C(C)C(=O)N4CCC3)cc1 (stereo not drawn)	-11.4
O=C(COc1ccccc1[N+](=O)[O-])N/N=C/c1ccccn1	10.5
Cc1sc2ncnc(N(C)Cc3ccco3)c2c1C	-4.64
CC(=O)NNc1ccc(C(F)(F)F)cc1[N+](=O)[O-]	9.46
COc1ccccc1-c1nc(S(=O)(=O)c2ccc(Cl)cc2)c(N(C)C)o1	12.7
CCCc1ccc(OCC(=O)NNC(=S)NC(=O)c2ccco2)cc1	8.34
COC(=O)c1ccc(C2C(Oc3ccccc3C)C(=O)N2CCc2ccc(OC)c(OC)c2)cc1 (stereo not drawn)	5.14
O=C(NCCN1CCOCC1)c1cccc(S(=O)(=O)Nc2ccc(Br)cc2)c1	-20.4
Cc1cnc[nH]1	-2.65
Cn1cc(/C=C(\NC(=O)c2ccccc2Cl)C(=O)NCCN2CCOCC2)c2ccccc21	-30
O=C(/C=C/c1ccc2c(c1)OCO2)Nc1nc(-c2ccccc2)cs1	8.74
Cc1cccc(C(=O)NC2CCN(CC(=O)Nc3ccc4c(c3)OCO4)CC2)c1	-57.7
Cc1ccccc1CCNC(=O)Cn1ccc2cc(S(=O)(=O)N3CCCC3)ccc21	5.11
CCCC(=O)O/N=C(\c1ccccc1)c1ccncc1	13.7
COc1ccc(O)c(CN2CCN(CCCc3ccccc3)C(CCO)C2)c1 (stereo not drawn)	-68.2
